# Reference: PMC7819943, “Rice protein-binding microarrays: a tool to detect cis-acting elements near promoter regions in rice”
# The list shows a part of the results.
# Biological target: T1, OsWOX13 (Oryza sativa, UniProt Q5QMM3 1-267)
# T1 sequence: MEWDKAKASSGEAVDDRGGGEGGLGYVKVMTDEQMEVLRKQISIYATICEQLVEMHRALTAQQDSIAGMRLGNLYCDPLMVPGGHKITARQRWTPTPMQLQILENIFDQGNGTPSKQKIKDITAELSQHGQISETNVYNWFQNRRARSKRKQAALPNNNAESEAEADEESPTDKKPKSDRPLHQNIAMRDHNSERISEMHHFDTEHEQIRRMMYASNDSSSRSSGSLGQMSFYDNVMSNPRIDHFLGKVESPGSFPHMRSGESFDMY
# Test: protein-binding microarray (RPBM); PBS, 2% BSA, 51.3 ng/ul salmon testes DNA, 50 uM zinc acetate, 200 nM TF, 25 C, 1 h; high values mean tight binding
# Settings: protein: recombinant; tags: N-terminal polyhistidine and DsRed monomer fusion (pET32a); label: CyDye5-dUTP incorporated in the synthesized complementary strand; 3' TTTTT single-stranded linker to array surface; dsDNA, one strand shown
# Method in brief: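 A custom Agilent array was converted to double-stranded form by primer extension with Cy5-dUTP and blocked with 2% BSA. Protein at 200 nM in PBS with 2% BSA, salmon testes DNA and 50 µM zinc acetate was applied for 1 h at 25 °C, followed by washing. The proteins were polyhistidine–DsRed N-terminal fusions of transcription factors, expressed in E. coli BL21-CodonPlus and Ni–NTA-purified. The binding signal is per-feature fluorescence intensity (arbitrary units) from an Axon 4000B scanner.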
row,Sequence,binding signal
1,AGGAAGTATGATATTTTCAATTAACTCAAGCAATTGCAACCGGAGTCACCTAGTGCAG,3790 fluorescence intensity (a.u.)
2,TTGGATTGGAGAGACGGGACGGGAGAAGAAGAAGAAGAAGCGGAGTCACCTAGTGCAG,3350 fluorescence intensity (a.u.)
3,ATGCCCTGTTACCTGTGTGTGATTTCTTTGTGCTCCATAACGGAGTCACCTAGTGCAG,5160 fluorescence intensity (a.u.)
4,CAAAATTTTAATTTTATGGTGGACTAAACACACCCTTTGTCGGAGTCACCTAGTGCAG,25500 fluorescence intensity (a.u.)
5,ACTAATGATGGAATTCGTTGCCCATTTTGTGATGTTGAAACGGAGTCACCTAGTGCAG,9680 fluorescence intensity (a.u.)
6,TTCAGTCTAATTTGTTACATCATCAGGAACTGATTTCGTCCGGAGTCACCTAGTGCAG,20900 fluorescence intensity (a.u.)
7,AGCCTAGTGATTAGTGAATGCCAATAGTAAATTTATTATTCGGAGTCACCTAGTGCAG,7320 fluorescence intensity (a.u.)
8,TAATAAATCAAAACTAATAAATCAAAACAGCTTATCAAGACGGAGTCACCTAGTGCAG,3350 fluorescence intensity (a.u.)
9,TCCACTAATTGCGATTATTGCCATCTATTTTCAAGATTACCGGAGTCACCTAGTGCAG,24700 fluorescence intensity (a.u.)
10,AGAATGGAAATTGAATGAAATCTACTCGGAGCAATTGAGACGGAGTCACCTAGTGCAG,7260 fluorescence intensity (a.u.)
11,GCAAGTATGATTACATAATGATCAGCGTGTTTATGATAAACGGAGTCACCTAGTGCAG,10200 fluorescence intensity (a.u.)
12,TTGTTAGATAACCAATTAATCAATTTTAATGCAATAACAACGGAGTCACCTAGTGCAG,12200 fluorescence intensity (a.u.)
13,AACATAATTACTATTTTCTGGTTTCATAAACTTCGATACACGGAGTCACCTAGTGCAG,22100 fluorescence intensity (a.u.)
14,GAACATCCACGTGATTGCAAATCATCAAAGCAAATAAGAGCGGAGTCACCTAGTGCAG,28200 fluorescence intensity (a.u.)
15,GCCCACTTGTCAATCTCTCTTTCTCTGTTCTTCTTCGACACGGAGTCACCTAGTGCAG,4840 fluorescence intensity (a.u.)
16,TTTAATTATTCTTCTTCCTCCTAATGCGCTCACTGGTCACCGGAGTCACCTAGTGCAG,16900 fluorescence intensity (a.u.)
17,TTTGTAACAGGTAATTTATGGACATTGCAAGGTGGATGGTCGGAGTCACCTAGTGCAG,17100 fluorescence intensity (a.u.)
18,AAGATACTACAATTTGATTGCAATAATCCATGATGATCGACGGAGTCACCTAGTGCAG,4310 fluorescence intensity (a.u.)
19,AGGAAGGAAGCATTTGATTGATGCAAGGAAGCAAAGAATCCGGAGTCACCTAGTGCAG,10800 fluorescence intensity (a.u.)
20,AGTAACCATTGATTGAGTAAGCACTCTAAGATTGGAGCAACGGAGTCACCTAGTGCAG,27000 fluorescence intensity (a.u.)
21,CGAACTAACTGATATTCTGATAGACAGTTGAGTTGGCTGACGGAGTCACCTAGTGCAG,34600 fluorescence intensity (a.u.)
22,TTATAGAGATTACCACTTTGATTATGCATGTGATTTGCCACGGAGTCACCTAGTGCAG,20200 fluorescence intensity (a.u.)
23,TTCTGTTTAATCCATCTTGATTGTATTTCATTAGTTGACACGGAGTCACCTAGTGCAG,7970 fluorescence intensity (a.u.)
